Reference: article PMC7819943, “Rice protein-binding microarrays: a tool to detect cis-acting elements near promoter regions in rice”
This is one part of the list.

What follows are sequences tested against T1, OsWOX13 (Oryza sativa, UniProt Q5QMM3 1-267) (assay: protein-binding microarray (RPBM); PBS, 2% BSA, 51.3 ng/ul salmon testes DNA, 50 uM zinc acetate, 200 nM TF, 25 C, 1 h; high values mean tight binding). Details: protein: recombinant; tags: N-terminal polyhistidine and DsRed monomer fusion (pET32a); label: CyDye5-dUTP incorporated in the synthesized complementary strand; 3' TTTTT single-stranded linker to array surface; dsDNA, one strand shown.
T1 sequence: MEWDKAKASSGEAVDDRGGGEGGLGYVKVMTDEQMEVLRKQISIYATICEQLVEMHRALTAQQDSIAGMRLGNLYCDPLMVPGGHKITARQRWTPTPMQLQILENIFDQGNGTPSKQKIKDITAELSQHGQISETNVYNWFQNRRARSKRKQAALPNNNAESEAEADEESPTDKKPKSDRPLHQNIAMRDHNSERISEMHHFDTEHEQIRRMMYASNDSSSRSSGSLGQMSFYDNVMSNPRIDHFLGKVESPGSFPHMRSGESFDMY
Outline: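 Ni–NTA purification followed expression in E. coli BL21-CodonPlus of transcription factors fused N-terminally to a polyhistidine tag and DsRed. At 200 nM in PBS with 2% BSA, salmon testes DNA and 50 µM zinc acetate, the protein was incubated for 1 h at 25 °C with a custom Agilent array that had been primer-extended with Cy5-dUTP and blocked with 2% BSA. After washing, the array was read on an Axon 4000B scanner. The binding signal is per-feature fluorescence intensity in arbitrary units.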
In the case of “AAAATTGAAAGTTTGATTGAAATTAGAACGATGTGACGAACGGAGTCACCTAGTGCAG”, the binding signal is reported as 35500 fluorescence intensity (a.u.). With “AATAAATTATCTTCTACTTTCTTATCTGCTCTTGGTTCGCCGGAGTCACCTAGTGCAG” the binding signal was 27500 fluorescence intensity (a.u.). For “TCTGTATGGTCTACTTGTTTGATTGATTGATAATTTTACACGGAGTCACCTAGTGCAG”, the binding signal was 22300 fluorescence intensity (a.u.). With “AAAATTGAATTCACCTGTTGCAACACATCAACATCTTTGCCGGAGTCACCTAGTGCAG” the binding signal was 6830 fluorescence intensity (a.u.). “TCATGATTTTCTAAAATAAAATATTTAATAGTGAATTTCTCGGAGTCACCTAGTGCAG” was tested, and the binding signal was 6240 fluorescence intensity (a.u.). “ATTAAATTGAGGGACCTCTGGTGAACTTATTCCTTCCGTACGGAGTCACCTAGTGCAG” was tested, and the binding signal was 18700 fluorescence intensity (a.u.). “CTTGATAAGCTCAATCAAGCACAGAGCCACAGGCCTGCCTCGGAGTCACCTAGTGCAG” was tested, and the binding signal was 24400 fluorescence intensity (a.u.). In the case of “GGATAAAGGACTTGACAATGTGATTGAGCACAACTGCACACGGAGTCACCTAGTGCAG”, the binding signal is reported as 5680 fluorescence intensity (a.u.). For “ATATTGATTATCGTTAATCATACATAGAAGTTTAGTAATACGGAGTCACCTAGTGCAG”, the binding signal was 20100 fluorescence intensity (a.u.). “CTCTCAACATGTTGATTAATTACTCACTAGTATATATAATCGGAGTCACCTAGTGCAG” was tested, and the binding signal was 3850 fluorescence intensity (a.u.). With “ACTTGACTGACTCTTATATTGCTCTTTTGTTTGGAAAATTCGGAGTCACCTAGTGCAG” the binding signal was 16000 fluorescence intensity (a.u.). With “GCATTGATAGAGAGTGACGATGAACACGATATTTATCCTCCGGAGTCACCTAGTGCAG” the binding signal was 10100 fluorescence intensity (a.u.). In the case of “CAGATCGAAATAGACAGACTCTGATCGACTGCCATTATCCCGGAGTCACCTAGTGCAG”, the binding signal is reported as 9460 fluorescence intensity (a.u.). In the case of “CTGTTTAGATTGTTGCTAAAATAAACCTTACCAAATTTGTCGGAGTCACCTAGTGCAG”, the binding signal is reported as 9880 fluorescence intensity (a.u.). In the case of “CCAAATGATATAATCATGGCACATGGAGTACTGCTTAAGACGGAGTCACCTAGTGCAG”, the binding signal is reported as 9170 fluorescence intensity (a.u.). In the case of “GTAGCTGATTACCAGCTCTTCTCTCTTCTCATTGAGAAGACGGAGTCACCTAGTGCAG”, the binding signal is reported as 4180 fluorescence intensity (a.u.). For “TAATCTTTTGTTAATTAACCCAAGCTAGTGAAGTGTAAGTCGGAGTCACCTAGTGCAG”, the binding signal was 5250 fluorescence intensity (a.u.). In the case of “CAAAACTAAAATGTTATCATATAATTATATATTTAAGACCCGGAGTCACCTAGTGCAG”, the binding signal is reported as 8760 fluorescence intensity (a.u.). In the case of “CCAATCCAATCAGTGCCTCTCCTCTCCTTCCCGTCCGCATCGGAGTCACCTAGTGCAG”, the binding signal is reported as 5780 fluorescence intensity (a.u.). In the case of “GTGTTAAATTATAAATTGTGTTTCTGATTACAGGCTTAGACGGAGTCACCTAGTGCAG”, the binding signal is reported as 18900 fluorescence intensity (a.u.). In the case of “CGAAGATTATTTGAACCATAATTTTCTCATTGGGTTAACCCGGAGTCACCTAGTGCAG”, the binding signal is reported as 4840 fluorescence intensity (a.u.). In the case of “GCCTATCACTCAATCACCTCCTTCCCACGCAAAACAACTCCGGAGTCACCTAGTGCAG”, the binding signal is reported as 10800 fluorescence intensity (a.u.). In the case of “CCTGCATGATTTGCGGCTCCTCCTCCGTCCATCCAGGCTGCGGAGTCACCTAGTGCAG”, the binding signal is reported as 14200 fluorescence intensity (a.u.). In the case of “CCCTAATCCCATTTAATCAGCACAGCTTCTTAATTACTCCCGGAGTCACCTAGTGCAG”, the binding signal is reported as 6810 fluorescence intensity (a.u.). In the case of “TCTAATTAATCCATGATTAGCCTATGTGATGCTACAGTAACGGAGTCACCTAGTGCAG”, the binding signal is reported as 25100 fluorescence intensity (a.u.). In the case of “CAGATAAAATTGACTTATTAATCTTGGGAAGGCCGTTACTCGGAGTCACCTAGTGCAG”, the binding signal is reported as 16300 fluorescence intensity (a.u.). In the case of “TGTAATTAAACTTTAATTTTACTATAGTTATATCTTAAAGCGGAGTCACCTAGTGCAG”, the binding signal is reported as 34700 fluorescence intensity (a.u.). “AGAACATAATTAATCAATTATTAGTTTTATAAACTTAAAACGGAGTCACCTAGTGCAG” was tested, and the binding signal was 9640 fluorescence intensity (a.u.). For “TTGATTAGTATAACTAGCCAATTGATCTAATTGCGTGCCTCGGAGTCACCTAGTGCAG”, the binding signal was 52200 fluorescence intensity (a.u.). With “TAATGATACTAATTGGTAATTGCAACTTGGACGTTTAGACCGGAGTCACCTAGTGCAG” the binding signal was 22700 fluorescence intensity (a.u.). In the case of “ATGTTCTTTGCTGATTGCTAACCAGAAGAGAAGAAACCCTCGGAGTCACCTAGTGCAG”, the binding signal is reported as 5410 fluorescence intensity (a.u.). With “GTTTTAAATGACCAGTTAGTTACAGGCTTACAGCTAGCCACGGAGTCACCTAGTGCAG” the binding signal was 8660 fluorescence intensity (a.u.). For “CTTACTCAATTAAAGCTGTTTGCTGTTTCGTGGTTATCACCGGAGTCACCTAGTGCAG”, the binding signal was 7180 fluorescence intensity (a.u.). “ATTACATACCTGATTGAGTTGGTACTACAAGGCAGGGAGCCGGAGTCACCTAGTGCAG” was tested, and the binding signal was 16400 fluorescence intensity (a.u.). In the case of “ACTAATTATTTAGATGGTCCAAGAGAAACGAGATGTGTCACGGAGTCACCTAGTGCAG”, the binding signal is reported as 23900 fluorescence intensity (a.u.). For “CAGTATAGATTTGTTAAGTTTATTTATTAAAATATTTTCTCGGAGTCACCTAGTGCAG”, the binding signal was 3190 fluorescence intensity (a.u.). With “CCACGCCAATTAGCATCCCACGTTTCGCCTTTGATTGTGGCGGAGTCACCTAGTGCAG” the binding signal was 10600 fluorescence intensity (a.u.). For “TTTTAAAATTTAAATTTTATATAGTTCAATCAAACTCGGACGGAGTCACCTAGTGCAG”, the binding signal was 21700 fluorescence intensity (a.u.). “AACGAAAGATTGAACCCCTGACCGGACCACTGCTACTTTGCGGAGTCACCTAGTGCAG” was tested, and the binding signal was 4720 fluorescence intensity (a.u.). “AATAAATTTGCAAAATCTAATAAGTACATAGTAGAGTGCACGGAGTCACCTAGTGCAG” was tested, and the binding signal was 15700 fluorescence intensity (a.u.). “CCCTCTAATGATTAAGAGCCGTATTGCTTTAGATCTAATACGGAGTCACCTAGTGCAG” was tested, and the binding signal was 6200 fluorescence intensity (a.u.). For “AGTGAGCTGATAGATAGACTATAACTAAGCAGCTGGATGTCGGAGTCACCTAGTGCAG”, the binding signal was 8540 fluorescence intensity (a.u.).
